Measurements as given in PubChem BioAssay (NCATS).
Several values for one entry are separate records, joined by “and”; a condition that tells them apart may be missing. Equal values may be shown once. The inconclusive results got no clear call from the source; some entries with a clear call stand among them for comparison. For some assays here: Potencies of inconclusive entries are doubtful fits and often do not repeat. Activity calls are given as the source filed them. Unless noted, the call rests on the fitted dose curve; in most records, active means well fitted curve in the direction sought with a large enough effect; inconclusive means small, poorly fitted or top-dose-only effect, or another doubt; inactive means no such curve, though single readings can be large; an effect the other way counts as inactive or inconclusive.

Legend:
[1] = Primary qHTS for inhibitors of nuclear receptor binding SET domain protein 2 (NSD2) in an isogenic RCH-ACV NSD2 p.E1099K mutant (9B) (AID 1645876); further: potency means the concentration at half of the fitted maximal effect; nearly all actives have a fitted effect of over 70% in size
[2] = tested on: HaCat; assay: Cytotoxic Profiling of Annotated Libraries Using Quantitative High-Throughput Screening (AID 1296008); conditions: Five cell lines viability, CellTiter-Glo ATP luminescence, 48-72 h; max response: stronger effect = lower value; further: nearly all actives have a fitted effect of over 60% in size; further: potency means the concentration at half of the fitted maximal effect
Method in brief: (§1)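 Cytotoxicity was measured as CellTiter-Glo ATP luminescence, read after 10 min at room temperature. Compound treatment of the cells lasted 48 or 72 hr at 37 degrees Celsius in a qHTS format.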

[3] = P-glycoprotein substrates identified in KB-8-5-11 adenocarcinoma cell line, qHTS therapeutic library screen (AID 1346987); further: nearly all actives have a fitted effect of over 65% in size; further: potency means the concentration at half of the fitted maximal effect; on activity change, negative = cytotoxicity: on the % scale 0 is the no-effect control and ±100 the full control effect
Method in brief: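 KB-8-5-11: colchicine-selected sub-line of KB-3-1 over-expressing P-gp; assay medium lacked colchicine. 72 h drug exposure at 37 degree C, CellTiter-Glo.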

[4] = qHTS of pediatric cancer cell lines to identify multiple opportunities for drug repurposing: Primary screen for Rh41 cells (AID 1347108);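 further: luminescence drop marks cytotoxic hits; nearly all actives have a fitted effect of over 70% in size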
Method in brief: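 Following a 5-hour attachment period, cells at 500-1,000/well received compounds and were cultured for 48 hours. CellTiter-Glo was added and luminescence read to estimate viable, metabolically active cells.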

[5] = molecular target: Cytochrome P450 2D6 (Homo sapiens) (UniProt P10635); assay: Cytochrome P450 family 2 subfamily D member 6 (CYP2D6) small molecule antagonists: luciferase biochemical (cell-free) qHTS assay (AID 1645840; active means well fitted curve in the direction sought with a large enough effect in the repeat runs; inconclusive means weak or mixed curves; inactive means no such curve, though single readings can be large; an effect the other way counts as inactive or inconclusive; further: nearly all actives have a fitted effect of over 55% in size; further: potency means the concentration at half of the fitted maximal effect)
Method in brief: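 P450-Glo luminescent screen: recombinant CYP2D6 enzyme–proluciferin substrate mix preincubated with compound 10 min at room temperature, then NADPH regeneration added for 1 h at room temperature. Detection reagent added for 20 min; luciferin light read as relative luminescence units.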

[6] = tested on: KB-3-1; assay: Cytotoxic Profiling of Annotated Libraries Using Quantitative High-Throughput Screening (AID 1296008); conditions: Five cell lines viability, CellTiter-Glo ATP luminescence, 48-72 h; max response: stronger effect = lower value; further: nearly all actives have a fitted effect of over 60% in size; further: potency means the concentration at half of the fitted maximal effect
Method in brief: as §1

[7] = tested on: NIH3T3; assay: as above; conditions: Five cell lines viability, CellTiter-Glo ATP luminescence, 48-72 h; max response: stronger effect = lower value
Method in brief: as §1

[8] = tested on: C33A; assay: Primary qHTS to identify gynecologic anti-cancer compounds using libraries of approved drugs and bioactive compounds (AID 1345084); conditions: Gynecologic cancer cell panel viability, ATPlite luminescence, 48 h; series mostly up to 57.5 µM; further: nearly all actives have a fitted effect of over 55% in size; further: potency means the concentration at half of the fitted maximal effect; on activity change, negative = cytotoxicity: on the % scale 0 is the no-effect control and ±100 the full control effect
Method in brief: (§2)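 Luminescence from the ATPlite ATP-monitoring reagent indicates viable cell number; lower signal means cytotoxicity. Cells received compound 16 h after seeding and were exposed for 48 h across five concentrations.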

[9] = tested on: CAOV3; assay: as above; conditions: Gynecologic cancer cell panel viability, ATPlite luminescence, 48 h; activity change, negative = cytotoxicity: at 57.5 µM (top of the series)
Method in brief: as §2

[10] = tested on: CASKI; assay: as above; conditions: Gynecologic cancer cell panel viability, ATPlite luminescence, 48 h; series mostly up to 57.5 µM
Method in brief: as §2

[11] = tested on: Hek293T; assay: as above; conditions: Gynecologic cancer cell panel viability, ATPlite luminescence, 48 h, control line for the selectivity index; activity change, negative = cytotoxicity: at 57.5 µM (top of the series) unless noted
Method in brief: as §2

[12] = tested on: OV90; assay: as above; conditions: Gynecologic cancer cell panel viability, ATPlite luminescence, 48 h; series mostly up to 57.5 µM
Method in brief: as §2

[13] = tested on: PA-1; assay: as above; conditions: Gynecologic cancer cell panel viability, ATPlite luminescence, 48 h; series mostly up to 57.5 µM
Method in brief: as §2

[14] = tested on: SKOV3; assay: as above; conditions: Gynecologic cancer cell panel viability, ATPlite luminescence, 48 h; series mostly up to 57.5 µM
Method in brief: as §2

[15] = tested on: Tov-21-G; assay: as above; conditions: Gynecologic cancer cell panel viability, ATPlite luminescence, 48 h; activity change, negative = cytotoxicity: at 57.5 µM (top of the series) unless noted
Method in brief: as §2

[16] = tested on: Tov112D; assay: as above; conditions: Gynecologic cancer cell panel viability, ATPlite luminescence, 48 h; series mostly up to 57.5 µM
Method in brief: as §2

[17] = Primary qHTS for inhibitors of nuclear receptor binding SET domain protein 2 (NSD2) in an RCH-ACV wild type WT cells (2C) (AID 1645877); conditions: activity change, negative = cell killing: at 44.9 µM (top of the series) unless noted; further: nearly all actives have a fitted effect of over 70% in size; further: potency means the concentration at half of the fitted maximal effect
[18] = tested on: HeLa; assay: Primary qHTS to identify gynecologic anti-cancer compounds using libraries of approved drugs and bioactive compounds (AID 1345084); conditions: Gynecologic cancer cell panel viability, ATPlite luminescence, 48 h; activity change, negative = cytotoxicity: at 57.5 µM (top of the series); further: nearly all actives have a fitted effect of over 55% in size; further: potency means the concentration at half of the fitted maximal effect; on activity change, negative = cytotoxicity: on the % scale 0 is the no-effect control and ±100 the full control effect
Method in brief: as §2

[19] = Primary fluorescence-based thiol-reactive (MSTI) qHTS assay for identification of artifact compounds. (AID 1845221);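 further: potency means the concentration at half of the fitted maximal effect; thiol-reactive compounds lower the probe fluorescence signal; nearly all actives have a fitted effect of over 65% in size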
Method in brief: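 Compounds were incubated 1 h at room temperature in the dark with the MSTI probe (4 uM) in PBS pH 7.4, 2% DMSO. Signals were normalized between Acetyl-MSTI and MSTI.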

[20] = tested on: Es-2; assay: Primary qHTS to identify gynecologic anti-cancer compounds using libraries of approved drugs and bioactive compounds (AID 1345084); conditions: Gynecologic cancer cell panel viability, ATPlite luminescence, 48 h; series mostly up to 57.5 µM; further: nearly all actives have a fitted effect of over 55% in size; further: potency means the concentration at half of the fitted maximal effect; on activity change, negative = cytotoxicity: on the % scale 0 is the no-effect control and ±100 the full control effect
Method in brief: as §2
Tags describe the fitted curve by direction and shape.

Chain of UniProt P10635 (P10635 whole entry, looked up): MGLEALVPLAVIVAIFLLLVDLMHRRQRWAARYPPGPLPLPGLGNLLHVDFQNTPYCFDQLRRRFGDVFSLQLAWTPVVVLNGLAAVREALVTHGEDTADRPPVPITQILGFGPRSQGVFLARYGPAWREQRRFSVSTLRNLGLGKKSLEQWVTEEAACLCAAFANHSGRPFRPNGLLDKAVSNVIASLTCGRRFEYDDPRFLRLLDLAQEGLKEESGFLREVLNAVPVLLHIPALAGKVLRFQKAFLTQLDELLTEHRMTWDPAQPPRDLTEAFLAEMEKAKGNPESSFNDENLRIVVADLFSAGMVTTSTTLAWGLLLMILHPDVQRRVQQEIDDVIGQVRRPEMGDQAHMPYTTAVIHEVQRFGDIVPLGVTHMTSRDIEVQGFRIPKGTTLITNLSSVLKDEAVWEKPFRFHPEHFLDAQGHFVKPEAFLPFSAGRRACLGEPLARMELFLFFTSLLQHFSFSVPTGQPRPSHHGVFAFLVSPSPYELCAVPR

NC(=O)c1cnc(N[C@@H]2CCCC[C@@H]2N)nc1Nc1cccc(-n2nccn2)c1
active: Potency [1] 1.32 µM | Potency [2] 13.2 µM

CC(=O)Oc1ccc(C)cc1
inactive: Potency [3] | Potency [4]
inconclusive: Potency [2] 0.0053 µM [inhibitor, full curve, poor fit]

COc1ccc2[nH]c3c(-c4cccc5ccccc45)nccc3c2c1
inconclusive: Potency [7] 0.82 µM [inhibitor, full curve] | Potency [9] 8.91 µM [cytotoxic, full curve] | Potency [11] 1.26 µM [cytotoxic, full curve] | Potency [12] 7.08 µM [cytotoxic, full curve, poor fit] | Potency [14] 0.891 µM [cytotoxic, single point] | Potency [15] 0.708 µM [cytotoxic, full curve]
active: Potency [3] 0.92 µM | Potency [5] 0.0151 µM | Potency [6] 0.82 µM | Potency [8] 2.82 µM | Potency [10] 1.41 µM | Potency [13] 0.891 µM | Potency [16] 1.41 µM

CC(C)S(=O)(=O)NC[C@H](C)c1ccc(-c2ccc(CCNS(C)(=O)=O)cc2)cc1
inactive: Potency [18]
inconclusive: Potency [3] 5.8 µM [inhibitor, partial curve] | Potency [17] 8.17 µM [inhibitor, partial curve] | Potency [6] 4.11 µM [inhibitor, partial curve] | Potency [7] 25.9 µM [inhibitor, single point] | Potency [8] 28.2 µM [cytotoxic, single point] | Potency [10] 31.6 µM [cytotoxic, single point] | Potency [12] 22.4 µM [cytotoxic, single point] | Potency [16] 22.4 µM [cytotoxic, partial curve, poor fit]
active: Potency [1] 6.49 µM | Potency [11] 8.91 µM | Potency [14] 17.8 µM

CC(=O)c1c(OCCN2CCCCC2)c(OCCC(C)c2ccc(F)cc2)c2oc(C)nc2c1C (stereo unspecified)
active: Potency [3] 20.6 µM
inconclusive: Potency [1] 23 µM [inhibitor, single point] | Potency [17] 18.3 µM [inhibitor, single point] | Potency [6] 29.1 µM [inhibitor, single point] | Potency [7] 23.1 µM [inhibitor, single point] | Potency [9] 3.55 µM [cytotoxic, single point] | Potency [11] 22.4 µM [cytotoxic, single point] | Potency [13] 31.6 µM [cytotoxic, single point] | Potency [14] 39.8 µM [cytotoxic, single point]

O=S(=O)(c1cccc2ccccc12)n1ccc2ccc(N3CCN4CCCC4C3)cc21 (stereo unspecified)
active: Potency [3] 20.6 µM
inconclusive: Potency [19] 1.5 µM [inhibitor, full curve] | Potency [6] 29.1 µM [inhibitor, single point] | Potency [7] 25.9 µM [inhibitor, single point] | Potency [13] 3.16 µM [rising, single point]
inactive: Potency [8] | Potency [12] | Potency [15]

Cc1nc(-c2cn3c(n2)-c2ccc(-c4cnn(C(C)(C)C(N)=O)c4)cc2OCC3)n(C(C)C)n1
active: Potency [1] 7.3 nM and 18.6 nM | Potency [7] 5.17 µM | Potency [9] 35.5 µM | Potency [11] 15.8 µM | Potency [14] 0.631 µM
inconclusive: Potency [3] 16.4 µM [inhibitor, partial curve] | Potency [6] 14.6 µM [inhibitor, partial curve] | Potency [8] 8.91 µM [cytotoxic, full curve, poor fit] | Potency [10] 2.82 µM [cytotoxic, partial curve, poor fit] | Potency [12] 12.6 µM [cytotoxic, partial curve, poor fit] | Potency [13] 12.6 µM [cytotoxic, partial curve, poor fit]
inactive: Potency [5] | Potency [20]

NC(N)=NCCN1CCCCCCC1
inactive: activity change, negative = cell killing [17] 1.99% [at 0.588 µM] | max response [6] 18.1% | max response [7] 4.36% | activity change, negative = cytotoxicity [9] -2.11% [at 0.462 µM]

O=C(Nc1cccc([N+](=O)[O-])c1)c1cccc(S(=O)(=O)N2CCCCCC2)c1
inactive: Potency [9] | Potency [10] | Potency [20] | Potency [18]
inconclusive: Potency [3] 6.51 µM [inhibitor, partial curve] | Potency [5] 9.52 µM [inhibitor, partial curve] | Potency [1] 12.9 µM [inhibitor, partial curve] | Potency [17] 14.5 µM [inhibitor, single point] | Potency [19] 1.89 µM [inhibitor, full curve, poor fit] | Potency [6] 16.4 µM [inhibitor, single point] | Potency [7] 29.1 µM [inhibitor, single point] | Potency [8] 25.1 µM [cytotoxic, single point] | Potency [11] 20 µM [cytotoxic, single point] | Potency [12] 39.8 µM [cytotoxic, single point] | Potency [14] 28.2 µM [cytotoxic, single point]

CC(C)(C)c1ccc(NC(=O)N2CCN(c3ncccc3Cl)CC2)cc1
inconclusive: Potency [3] 23.1 µM [inhibitor, single point] | Potency [5] 12 µM [inhibitor, partial curve] | Potency [1] 18.3 µM [inhibitor, single point] | Potency [17] 29 µM [inhibitor, single point] | Potency [6] 29.1 µM [inhibitor, single point] | Potency [7] 20.6 µM [inhibitor, single point] | Potency [8] 22.4 µM [cytotoxic, single point] | Potency [11] 31.6 µM [cytotoxic, single point] | Potency [12] 14.1 µM [cytotoxic, partial curve] | Potency [13] 10 µM [cytotoxic, partial curve, poor fit]
active: Potency [14] 22.4 µM

C[C@H](Oc1cc(-c2cnn(C3CCNCC3)c2)cnc1N)c1c(Cl)ccc(F)c1Cl
inconclusive: Potency [3] 18.4 µM [inhibitor, single point] | Potency [6] 20.6 µM [inhibitor, single point] | Potency [7] 29.1 µM [inhibitor, single point] | Potency [9] 28.2 µM [cytotoxic, single point] | Potency [12] 25.1 µM [cytotoxic, single point] | Potency [13] 39.8 µM [cytotoxic, single point] | Potency [14] 28.2 µM [cytotoxic, single point] | Potency [15] 39.8 µM [cytotoxic, single point]

CN(C)CCCNc1nc(CN2CCN(C(c3ccc(Cl)cc3)c3ccc(Cl)cc3)CC2)nc2ccccc12
inactive: Potency [10]
active: Potency [1] 9.16 µM | Potency [17] 7.28 µM
inconclusive: Potency [3] 18.4 µM [inhibitor, single point] | Potency [5] 30.1 µM [inhibitor, single point] | Potency [6] 25.9 µM [inhibitor, single point] | Potency [7] 29.1 µM [inhibitor, single point] | Potency [12] 31.6 µM [cytotoxic, partial curve, poor fit] | Potency [14] 8.91 µM [rising, single point]

CC(OC1OCCN(Cc2n[nH]c(=O)[nH]2)C1c1ccc(F)cc1)c1cc(C(F)(F)F)cc(C(F)(F)F)c1 (stereo unspecified)
inconclusive: Potency [3] 29.1 µM [inhibitor, single point] | Potency [6] 29.1 µM [inhibitor, single point] | Potency [7] 23.1 µM [inhibitor, single point] | Potency [16] 35.5 µM [cytotoxic, single point]
inactive: Potency [10] | Potency [11]

CCCCNc1ccc(-c2ccc(CN3CCOCC3)cn2)c(NC2CCC(O)CC2)c1 (stereo unspecified)
inactive: max response [6] -18.8% | Potency [10] | Potency [20]
inconclusive: Potency [3] 2.24 µM [inhibitor, full curve] | Potency [5] 13.1 µM [inhibitor, partial curve, poor fit] | Potency [1] 0.796 µM [inhibitor, full curve] | Potency [7] 3.17 µM [inhibitor, single point] | Potency [13] 1.41 µM [cytotoxic, single point]
active: Potency [9] 1.78 µM

COc1cc2nc(N3CCN(C(=O)c4ccco4)C4CCCCC43)nc(N)c2cc1OC (stereo unspecified)
inconclusive: Potency [19] 2.38 µM [inhibitor, full curve] | Potency [7] 29.1 µM [inhibitor, single point] | Potency [9] 39.8 µM [cytotoxic, single point] | Potency [13] 39.8 µM [cytotoxic, single point] | Potency [14] 1 µM [cytotoxic, full curve, poor fit] | Potency [15] 35.5 µM [cytotoxic, partial curve, poor fit]
active: Potency [3] 14.6 µM | Potency [1] 2.3 µM | Potency [6] 20.6 µM
